± gives the standard deviation of the averaged measurements. This is one part of the list.

This experiment has as its system PfAP2-LT AP2 domain (GST-tagged). Nature of the experiment: gcPBM binding intensity (ln(normalized median fluorescence intensity)); higher = stronger DNA binding. An outline of the steps: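 Binding intensity is the highest Masliner-normalised natural-log median intensity over replicate spots in either probe orientation. To obtain it, GST-tagged P. falciparum DNA-binding domains made in E. coli were incubated for 1 h on an Agilent 4 × 180k array of primer-extended double-stranded 36-bp intergenic genomic probes plus negative controls. Detection used Alexa488 anti-GST antibody with scanning at 488 nm.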
Regarding “ATTCATTCATATGTTACACACACACCCACCCATAAA [CACACA_site9066]”, the “gcPBM binding intensity (ln)” value worked out at 9.71 ± 0.23.

Take “TTTATCGAATATAATAGTACATAAAAAAAAAAAAAA [XGTACX_site1734]”: the “gcPBM binding intensity (ln)” value stood at 8.49 ± 0.35.

As to “AGATTATATAAAAAAGTGCATATTTTCATTTTTTTT [GTGCAC_site9448]”, the “gcPBM binding intensity (ln)” value worked out at 8.39 ± 0.47.

“CATTAAAATGGTAAATGTACATATCCATCTTCTCAC [XGTACX_site4636]”: the “gcPBM binding intensity (ln)” value was found to be 8.89 ± 0.35.

For “TCCCTTTGTATATATATATAAATATATATATATATA [CACACA_negctrl_site157]”, the “gcPBM binding intensity (ln)” value was found to be 9.11 ± 0.25.

“TTATGAAGCAGACATGCATGTTATGGCTTAAATAAT [TGCATGCA_site492]”: the “gcPBM binding intensity (ln)” value was 8.97 ± 0.45.

As for “ACATTTTTTTTGTGAGTCTTTGCGGCATCAAAATTT [XGTACX_negctrl_site348]”, the “gcPBM binding intensity (ln)” value turned out to be 8.7 ± 0.36.

As for “AAAAAAGAAAAAAACTGTACATGATAAATATTTATT [XGTACX_site7270]”, the “gcPBM binding intensity (ln)” value is 8.79 ± 0.52.

As for “ATTATATTCCAAGTTTGTACATATATATAAAAGTAT [XGTACX_site1631]”, the “gcPBM binding intensity (ln)” value worked out at 8.72 ± 0.34.

Turning to “GTAAAAGTTAAAAAAACATGCAAAATTTAAAAAAAA [TGCATGCA_site637]”, the “gcPBM binding intensity (ln)” value is 8.71 ± 0.54.

In the case of “ATACATATATATATTCTACACACTTATAATATAATA [CACACA_site8782]”, the “gcPBM binding intensity (ln)” value stood at 8.78 ± 0.45.

Turning to “ACTATATTTGCCCTTTTAATCAGAACAAAAAAAAAA [CACACA_negctrl_site1051]”, the “gcPBM binding intensity (ln)” value was determined as 8.31 ± 0.41.

Take “AAAAAAAAAAAATCATGTACTTATTTTTCATTGTTG [XGTACX_site1542]”: the “gcPBM binding intensity (ln)” value stood at 8.63 ± 0.46.

In the case of “AAATAAGCATATACAAACATGCATACATATAAATAA [CACACA_negctrl_site246]”, the “gcPBM binding intensity (ln)” value amounted to 8.96 ± 0.45.

As for “CTTATATTAAAAACTTGTACACATGTTAAGAATTTT [XGTACX_site5857]”, the “gcPBM binding intensity (ln)” value is 8.51 ± 0.4.

For “TTTATATATTATACATGTACATATTTATTTATATAA [XGTACX_site3474]”, the “gcPBM binding intensity (ln)” value came to 8.79 ± 0.4.

For “TATATGCACTTAATATGTACACAAAAAAAAAAAAAA [XGTACX_site6199]”, the “gcPBM binding intensity (ln)” value was 8.6 ± 0.44.

On to “AGTATAAAAATAAGCACACACACAAATATATATTTA [CACACA_site923]”, for which the “gcPBM binding intensity (ln)” value was determined as 9.77 ± 0.16.

In the case of “TTTCTTCTGCATTATGCACACTATAATTCGTTAAAA [CACACA_site5568]”, the “gcPBM binding intensity (ln)” value is 9.05 ± 0.31.

On to “TTTTCTTTTACAAAGGGTACATAATTTAAATTCATA [XGTACX_site3876]”, for which the “gcPBM binding intensity (ln)” value turned out to be 8.43 ± 0.36.

“ATAATATAAATATTAACACACATCCTTTTATGTATA [CACACA_site6685]”: the “gcPBM binding intensity (ln)” value is 8.88 ± 0.45.

In the case of “TTACAAAACACTTATACACACATATAAATATAAATA [CACACA_site7307]”, the “gcPBM binding intensity (ln)” value stood at 8.93 ± 0.42.

With “CTCCTCATATAATTTTGTACATAAAAAATTACCATT [XGTACX_site3879]”, the “gcPBM binding intensity (ln)” value came out at 8.65 ± 0.33.

On to “TATTTTATAATTTACCGTACATTAATTGTATTATTA [XGTACX_site5722]”, for which the “gcPBM binding intensity (ln)” value is 8.8 ± 0.41.

Regarding ATATATTTTATATGTGTGCACTATATATATATATAT, the “gcPBM binding intensity (ln)” value came to 9.41 ± 0.13.

Consider “TCTTATTTTATAAATATAAATATATATATATATATA [GTGCAC_negctrl_site479]”, for which the “gcPBM binding intensity (ln)” value came to 8.65 ± 0.18.

Take “ATTAATATATAACGTGCACACACACCGTTACGTATG [CACACA_site8543]”: the “gcPBM binding intensity (ln)” value came to 9.59 ± 0.35.

For the sequence “TGTTATATATATTGACTTAATAAATAAATAAATATA [GTGCAC_negctrl_site590]”, the “gcPBM binding intensity (ln)” value was 8.28 ± 0.36.

For “ATATATTTTAAAGAAAGTACCCACCGTTTGAAGTCA [XGTACX_site2273]”, the “gcPBM binding intensity (ln)” value amounted to 8.66 ± 0.35.

“TAAAAGAAATAAGGTGCACACATATACATATATATA [CACACA_site8037]”: the “gcPBM binding intensity (ln)” value came out at 9.26 ± 0.45.

Turning to “TTTCTAAATGTTTATATATATATATATATATAAATA [GTGCAC_negctrl_site397]”, the “gcPBM binding intensity (ln)” value stood at 8.72 ± 0.26.

As to “CTATAAATAACAGAAAGTACATATACATGGATATAT [XGTACX_site3317]”, the “gcPBM binding intensity (ln)” value was determined as 8.91 ± 0.54.

In the case of “AATATATCAAAAATTGGATAGTTTCTTATAAAAAAT [CACACA_negctrl_site39]”, the “gcPBM binding intensity (ln)” value amounted to 8.43 ± 0.46.

In the case of “TATTTTGCTCATCCATGTACACATAGATATATTTTA [XGTACX_site8244]”, the “gcPBM binding intensity (ln)” value was found to be 8.76 ± 0.42.

On to “TTCTTTTCAGAAGGAAAGAATTATAACATATCATAA [XGTACX_negctrl_site548]”, for which the “gcPBM binding intensity (ln)” value amounted to 8.16 ± 0.46.

For the sequence “ATATTATGTGAAGAACGTACAAATTTTTACACTATA [XGTACX_site1485]”, the “gcPBM binding intensity (ln)” value stood at 8.96 ± 0.42.

On to “TAATATAACAAAAAAATAAAATAAAATAAAAAATAA [CACACA_negctrl_site109]”, for which the “gcPBM binding intensity (ln)” value came to 8.54 ± 0.54.

Consider “ACTATTTAAATGCAAAGTACTTTGATAATAAACAAT [XGTACX_site2608]”, for which the “gcPBM binding intensity (ln)” value came out at 8.85 ± 0.45.

Regarding “ATATAATAATATTAAAGTACATGCATATATATTTAT [XGTACX_site7422]”, the “gcPBM binding intensity (ln)” value was 8.89 ± 0.3.

Turning to “CATAATATCTCTTTGTGTACATATAGTTATTATTAT [XGTACX_site7688]”, the “gcPBM binding intensity (ln)” value turned out to be 8.96 ± 0.42.

Turning to “ATTTTTTAAAAAAACATACACACAAAAAAAAAAAAA [CACACA_site3936]”, the “gcPBM binding intensity (ln)” value worked out at 8.73 ± 0.47.

On to “ATTATTATATATAAAACACACAATTTTGTTTTCACA [CACACA_site3965]”, for which the “gcPBM binding intensity (ln)” value was 8.71 ± 0.55.

Consider “CTGGAGTTAAAAATGTGTACCTAAAAAATTTTGTTC [XGTACX_site5554]”, for which the “gcPBM binding intensity (ln)” value was 8.55 ± 0.49.

Regarding “CTTGTATATAAACACACACACACTTTCTTTTTTTAA [CACACA_site8602]”, the “gcPBM binding intensity (ln)” value turned out to be 9.44 ± 0.23.

Values taken from the supplement of paper PMC11417369.
